Results: PubChem BioAssay AID1347071 (National Center for Advancing Translational Sciences (NCATS), 2019)
The campaign covered roughly 410,000 compounds. About 260 (0.063%) were called active. The inconclusive results got no clear call from the source; some entries with a clear call stand among them for comparison. The call rests on the fitted dose curve; in most records, active means well fitted activation curve with a large enough effect; inconclusive means small, poorly fitted or top-dose-only effect; inactive means no such curve, though single readings can be large or run the other way. No potency is given beside an inconclusive call; the fits are too rough.

Experiment: qHTS for compounds that reverse cellular toxicity of Amyloid beta (A-beta) peptide in yeast: Primary Screen; further: nearly all actives have a fitted effect of over 55% in size
Conditions: yeast expressing A-beta42, growth rescue, OD600, 48 h; growth rescue: at 46.1 µM (top of the series), 0% DMSO, 100% iron-clioquinol control
Procedure, shortened: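 Growth rescue measured by 600 nm absorbance after 48 h yeast culture at 30 C with compound. Values normalized between DMSO and an equimolar ferric chloride plus clioquinol control.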
Potency means the concentration at half of the fitted maximal effect; tags describe the fitted curve by direction and shape.

SMILES | Potency | growth rescue
O=S(=O)(Nc1ccc2nc(-c3ccc(F)cc3)oc2c1)c1ccccc1 | inconclusive [activator, single point] | 
N#CC(c1ccc(Cl)cc1)c1ncc(C(F)(F)F)cc1Cl (stereo not drawn) | inconclusive [activator, single point] | 
CC(C)(C)c1ccc(S(=O)(=O)Nc2cccnc2)cc1 | inconclusive [activator, full curve, poor fit] | 
Cc1cc(-c2ccccc2)n[nH]1 | inconclusive [activator, partial curve, poor fit] | 
CCOC(=O)c1ccc2c(c1)nc(SCc1cn3ccsc3n1)n2CC | inconclusive [activator, full curve, poor fit] | 
Cc1ccc(NC(=O)CN2C(=O)C3(SCC(=O)N3c3cccc(Cl)c3)c3ccccc32)cc1C (stereo not drawn) |  | inactive: 1.8%
O=C(N/N=C/c1ccccn1)c1sc2ccccc2c1Cl | inconclusive [activator, single point] | 
CS(=O)(=O)c1ccc(NCCN2CCOCC2)c([N+](=O)[O-])c1 |  | inactive: -2.97%
CCCNC(=O)C1(C)CCN1C(=O)C/C=C/c1ccccc1 (stereo not drawn) |  | inactive: -2.25%
Cn1c(N)c(C(=O)COC(=O)C23CC4CC(CC(C4)C2)C3)c(=O)n(C)c1=O | inconclusive [activator, partial curve] | 
COc1ccc(C(C)(O)c2nc(-c3csc4ccccc34)cs2)cc1 (stereo not drawn) | inconclusive [activator, partial curve, poor fit] | 
CCCCCC(=O)NC(=S)Nc1ccc(Cl)cn1 | inconclusive [activator, full curve] | 
Fc1cccc(-n2cc(-c3ccccc3)c3c(=S)nc[nH]c32)c1 | inconclusive [activator, single point] | 
Cc1cc(C)nc(NN=CC2=C(N3CCOCC3)/C(=C/c3ccc(Cl)cc3)CC2)n1 | inconclusive [activator, partial curve, poor fit] | 
Cc1ccc(S(=O)(=O)Nc2ccc3c(c2)C(=O)N([C@@H](C)CO)C[C@@H](C)[C@@H](CN(C)C(=O)NC2CCCCC2)OCCCC[C@H](C)O3)cc1 |  | inactive: -22.5%
CCCn1c(=N)n(CC(=O)c2ccc(Cl)cc2)c2ccccc21 | inconclusive [activator, partial curve] | 
CC(C)Oc1ccc(Cc2n[nH]c(=S)n2Cc2ccccc2)cc1Cl | inconclusive [activator, single point] | 
CCOC(=O)C(NC(=O)c1cccnc1)(Nc1cccc(C)n1)C(F)(F)F (stereo not drawn) | inconclusive [activator, partial curve, poor fit] | 
